Source: PMC4336329 (PLoS ONE, 2015)
The whole screen tested about 310,000 compounds, of which about 14,000 (4.5%) showed an effect of 50% or more. Effects have a minus sign here. The list shows a part of the results.

Biological target: human ether-à-go-go-related gene (hERG) potassium channel (human, UniProt Q12809)
Experiment: primary screen, population patch clamp on CHO cells stably expressing hERG
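Further: peak tail current of the secondary pulse compared with the same well before compound.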

Sequence of human ether-à-go-go-related gene (hERG) potassium channel (Q12809 whole entry, looked up): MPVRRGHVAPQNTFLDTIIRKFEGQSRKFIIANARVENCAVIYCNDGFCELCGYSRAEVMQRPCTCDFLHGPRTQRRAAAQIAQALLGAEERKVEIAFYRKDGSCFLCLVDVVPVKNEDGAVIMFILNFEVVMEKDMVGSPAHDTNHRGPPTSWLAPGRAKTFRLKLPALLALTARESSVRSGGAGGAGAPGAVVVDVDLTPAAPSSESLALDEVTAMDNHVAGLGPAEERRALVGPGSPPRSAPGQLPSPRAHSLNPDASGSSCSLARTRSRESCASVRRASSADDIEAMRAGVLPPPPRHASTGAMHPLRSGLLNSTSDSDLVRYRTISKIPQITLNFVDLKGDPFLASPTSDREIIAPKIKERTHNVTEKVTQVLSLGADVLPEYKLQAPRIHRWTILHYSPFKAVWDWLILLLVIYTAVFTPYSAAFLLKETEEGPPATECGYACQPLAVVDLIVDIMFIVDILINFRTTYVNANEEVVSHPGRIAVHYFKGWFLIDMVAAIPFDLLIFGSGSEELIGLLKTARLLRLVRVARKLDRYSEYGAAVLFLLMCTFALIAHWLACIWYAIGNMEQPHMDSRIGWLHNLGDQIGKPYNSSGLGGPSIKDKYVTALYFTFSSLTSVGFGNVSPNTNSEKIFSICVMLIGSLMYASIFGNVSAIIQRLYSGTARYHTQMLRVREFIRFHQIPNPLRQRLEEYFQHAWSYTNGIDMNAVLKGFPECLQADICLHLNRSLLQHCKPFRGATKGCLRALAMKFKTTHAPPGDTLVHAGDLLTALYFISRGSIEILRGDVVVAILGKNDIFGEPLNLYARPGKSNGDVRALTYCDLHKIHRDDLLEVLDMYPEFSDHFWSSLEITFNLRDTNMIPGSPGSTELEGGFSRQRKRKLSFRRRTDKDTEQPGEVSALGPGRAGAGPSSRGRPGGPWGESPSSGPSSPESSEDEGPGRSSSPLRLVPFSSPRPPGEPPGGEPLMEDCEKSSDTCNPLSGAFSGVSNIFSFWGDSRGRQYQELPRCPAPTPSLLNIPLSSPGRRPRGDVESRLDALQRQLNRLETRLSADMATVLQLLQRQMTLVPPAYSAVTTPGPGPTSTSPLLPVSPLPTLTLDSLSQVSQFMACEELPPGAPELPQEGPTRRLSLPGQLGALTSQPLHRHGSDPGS

SMILES | hERG current change (%, negative = inhibition) at 10uM
CN1CCN(NC(=O)COc2cccc(C(F)(F)F)c2)CC1 | 11.1%
CCCCn1c(=O)c(C(=O)NCc2ccncc2)c(O)c2ccccc21 | -44%
Cc1c(NC(=O)COC(=O)Cc2ccc(F)cc2)c(=O)n(-c2ccccc2)n1C | -14.2%
O=C(CCCCCNc1nc(=S)[nH]c2ccccc12)NCCc1ccc(Cl)cc1 | 9.51%
N#CCCn1cc(C(=O)Nc2ccccc2Cl)c(-c2ccc([N+](=O)[O-])cc2)n1 | -64.4%
O=S(=O)(c1ccc(Br)cc1)N1CCN(c2ccc3nnc(-c4ccccc4)n3n2)CC1 | -32%
O=C(CSc1nnc(-c2ccco2)n1CC1CCCO1)c1ccccc1 (centres unmarked) | -9.68%
Cc1cc(C)n2nc(C(=O)OCC(=O)Nc3ccc(C)c(S(=O)(=O)N(C)C)c3)nc2n1 | -11.6%
CC(=O)Nc1cc(OC(C)=O)c2nonc2c1OC(C)=O | -11.7%
CCN(CC(=O)NCc1ccc(F)cc1)C(=O)/C=C/c1cccs1 | -40.9%
COc1ccc(-c2nn(Cc3ccccc3)cc2C(=O)N2CCN(c3ncccn3)CC2)cc1 | -27%
Clc1ccccc1N/N=C/c1ccc2c(c1)OCO2 | 7.9%
Cc1ccsc1/C=N/N1CCN(c2ccccn2)CC1 | -8.96%
Cn1c(CC(=O)Nc2ccccc2)cc2ccccc21 | 20%
Brc1ccc(OCCCOc2cccc3cccnc23)cc1 | 6.35%
CC(C)=CCCC(C)CN1CCC(O)CC1 (centres unmarked) | -2.96%
COc1cccc(NC(=S)NC2CC(C)(C)NC(C)(C)C2)c1 | 3.98%
CC(C(=O)O)N(C(=O)c1ccccc1)c1ccc(F)cc1 (centres unmarked) | 30.2%
CC(C)(C)c1nnc(N/N=C/c2ccc(Br)cc2)n(N)c1=O | -6.3%
COc1ccc(N2CCN(S(=O)(=O)CCNC(=O)c3cc(=O)c4ccccc4o3)CC2)cc1 | 18.7%
CCOC(=O)c1cnc2c(-c3ccc(Cl)cc3)c(C)nn2c1N | 20.7%
Nc1ccc(N2CCCCC2)c2nonc12 | -39.3%
C=CCN1C(=O)C2C3C=CC(C2C1=O)C1C2C(=O)N(CC=C)C(=O)C2C31 (centres unmarked) | 10.5%

SMILES | hERG current change (%, negative = inhibition) at 10uM
CNCC[C@H](Oc1cccc2ccccc12)c1cccs1.Cl | -36%
Cc1sc2ncn(CC(=O)NCCCC(=O)N3CCC(C)CC3)c(=O)c2c1C | 6.66%
Nn1c(Cc2cccc3ccccc23)nnc1SCc1c(F)cccc1Cl | -14.7%
Cc1occc1C(=O)N(C)Cc1nc(-c2ccc(Cl)cc2)no1 | 1.74%
CCOP(=O)(OCC)C(NC(=O)c1ccc(Cl)cc1)=C(Cl)Cl | 3.96%
O=C(O)c1cccc(S(=O)(=O)Nc2ccccc2Cc2ccccc2)c1 | 13.3%
COc1ccc(C2CC(c3ccccc3)=NN2C(=O)CCC(=O)O)cc1 (centres unmarked) | 8.77%
Cc1ccc(OCCNC(=O)C(=O)NCc2ccco2)cc1 | 25.7%
CCNC(=S)N/N=C1\C(=O)c2cccc3cccc1c23 | 16.7%
Cc1onc(-c2c(F)cccc2Cl)c1C(=O)O/N=C(\N)c1ccc([N+](=O)[O-])o1 | -16.8%
Cc1nc2c([nH]c3ccccc32)c(=O)n1N | 21.4%
Cc1ccc(OCCCCNC(C)c2ccccc2)c(C)c1 (centres unmarked) | 2.1%
Cc1cc(Cl)nc(-c2ccccc2O)n1 | 34.7%
CC(=O)c1ccc(NC(=O)C(C)Sc2nnnn2C)cc1 (centres unmarked) | -5.7%
CCOCCCNC(=O)C(NC(=O)Cc1cccs1)c1ccc(OC)cc1 (centres unmarked) | 13.2%
CCOC(=O)C1CCN(Cc2ccc(OCc3ccccc3)c(OC)c2)CC1.O=C(O)C(=O)O | -19.3%
CC1(C)Cc2c(sc(NC(=O)c3ccc(S(=O)(=O)N4CCCCCC4)cc3)c2C(N)=O)C(C)(C)N1 | -0.99%
CCC(C)NC(=O)CCn1ccc2cc(S(=O)(=O)N3CCCC3)ccc21 (centres unmarked) | 12.3%
CCNc1nc(NCC)n2c(SCC(=O)Nc3ccccc3C(F)(F)F)nnc2n1 | -18.8%
CCc1nc2c3cnn(-c4cc(Cl)ccc4C)c3ncn2n1 | 5.24%
O=C(N/N=C/c1cc(Br)c(O)c(Br)c1O)c1ccc2c(c1)OCCO2 | -26.9%
C/C(=N\NC(=O)c1ccc(C(=O)N/N=C(\C)c2ccco2)o1)c1ccco1 | -2.05%
COc1ccc(C(=O)n2cnc3ccccc32)cc1Br | -2.21%

SMILES | hERG current change (%, negative = inhibition) at 10uM
CSc1nn2cc(CCN3CCOCC3)c(-c3ccc(F)cc3)nc2c1C#N | -16.2%
CCc1ccc(CNC(=O)C2CCN(S(=O)(=O)N3CC(C)CC(C)C3)CC2)cc1 (centres unmarked) | 13.3%
CCOC(=O)C1CCCN(CCC(=O)Nc2ccccc2)C1.Cl (centres unmarked) | -9.04%
COC(=O)CSc1nnc(CNC(=O)c2ccc(OC)c(OC)c2)n1C | 3.33%
CCn1c(CCCOc2ccc(Cl)cc2Cl)nnc1SCC(=O)Nc1cccc(F)c1 | 23.4%
CC(=O)NCc1ccc(S(=O)(=O)N2CCN(c3ccccn3)CC2)cc1 | 15.5%
CCC(=O)N1CCN=C1SCc1ccc(F)cc1 | -0.768%
CC1CCN(S(=O)(=O)c2cccc3cccnc23)CC1 | 0.0673%
O=C(Nc1ccc(Oc2ccc(NC(=O)c3ccco3)c(NC(=O)c3ccco3)c2)cc1)c1ccco1 | -13.5%
C=CCOn1c(=O)c(-c2ccc(C)cc2)[n+]([O-])c2ccccc21 | 21.1%
COc1ccc(CN(C)C(C)C(=O)Nc2cccc3ccccc23)cc1 (centres unmarked) | -14.1%
C=CCN(c1ccccc1)S(=O)(=O)c1cccc(C(=O)OCC(=O)NC2CC2)c1 | -8.05%
O=CNC(Cc1ccccc1)C(=O)O (centres unmarked) | 1.69%
Cc1ccc(S(=O)(=O)N2CCN(C(=O)c3cc4c(C)nn(-c5ccccc5)c4s3)CC2)cc1 | -17.3%
Cl.N=c1n(CCCOc2ccc(F)cc2)c2ccccc2n1CC(N)=O | -41.6%
N#C/C(=C\c1ccccc1)C(=O)OCC(=O)N1CCCC1 | 15.6%
Cc1ccc2cc(C(c3nnnn3Cc3ccccc3)N3CCc4ccccc43)c(=O)[nH]c2c1 (centres unmarked) | -6.55%
Nc1ccc(Br)cc1C(=O)c1ccccc1 | -0.531%
COc1cccc(-c2noc(C(C)n3nc(C)c([N+](=O)[O-])c3C)n2)c1 (centres unmarked) | -20.1%
O=C(c1ccc(CNc2c(N3CCCC3)c(=O)c2=O)cc1)N1CCc2ccccc2C1 | -10%
Cn1ccc(C(=O)N/N=C/c2ccccc2[N+](=O)[O-])n1 | 16.5%
Cc1ccccc1C(=O)NC1CCS(=O)(=O)C1 (centres unmarked) | 15.5%
Cc1ccccc1C(=O)NCC(=O)OC(C)C(=O)NC(C)CCc1ccccc1 (centres unmarked) | -6.06%

SMILES | hERG current change (%, negative = inhibition) at 10uM
CCC(=O)N(Cc1cc(=O)[nH]c2ccccc12)C1CCCCC1 | -7.86%
CCN(CC(=O)Nc1ccc(NC(C)=O)cc1)C(=O)/C=C/c1cccs1 | 3.44%
COC(=O)c1cnc2c(c(C)nn2C)c1OC | 8.08%
CCOC(=O)Cc1csc(NC(=O)c2ccncc2)n1 | 3.11%
COc1ccc(S(=O)(=O)N2CCOCC2)cc1NS(=O)(=O)/C=C/c1ccccc1 | 13.6%
O=C(/C=C/c1ccco1)NC(=S)Nc1nc(-c2ccc(Cl)cc2)cs1 | 12.2%
CCCN(CCC)S(=O)(=O)c1ccc(NC(=O)c2cc(C(=O)OC)cc([N+](=O)[O-])c2)cc1 | 16.5%
Cc1cc(C)n2nc(SCC(=O)NC3CCCCC3)nc2n1 | 1.68%
Cc1ccc(C)c(N(CC(=O)NC(C)C)C(=O)CCC(=O)Nc2ccccn2)c1 | 2.45%
COc1ccc(Cl)cc1C(=O)CSc1nnnn1C | 9.82%
Cc1ccc(C(=O)NCC(=O)OCC(=O)Nc2ccc3[nH]c(=O)[nH]c3c2)cc1 | 5.19%
COc1ccc(C)cc1Nc1n[n+](-c2ccccc2)c(-c2cc([N+](=O)[O-])cc(OC)c2O)s1.[Cl-] | 6.15%
CCOc1ccccc1NC(=O)C(=O)NCCC1=CCCCC1 | 5.25%
Cc1nc2cc(C(=O)N3CCN(C)CC3)ccc2n1C | 15.2%
Cc1ccn2cc(C(=O)Nc3ccccc3N3CCOCC3)nc2c1 | -40.5%
CC(=O)c1sc(NC(=O)C=C(C)C)nc1C | 4.69%
CN(CC(=O)NCc1ccncc1)S(=O)(=O)c1ccccc1 | -4.15%
CC1C(C#N)=C(N)OC2=C1C(=O)CC(C)(C)C2 (centres unmarked) | 9.35%
CCCCCOC(=O)CCN1C(=O)/C(=C2\SC(=S)N(CCC(=O)OCCCCC)C2=O)SC1=S | 11.8%
Cc1ccc(S(=O)(=O)c2ccc(Cl)cc2)cc1S(N)(=O)=O | -2.56%
